Assay results published in PubChem BioAssay AID1346428 (National Center for Advancing Translational Sciences (NCATS), 2018).
Hit rate of the full screen: of about 48,000 compounds, about 1,200 (2.5%) were called active. Another 2% or so got no clear call; they are omitted.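 The calls were made as follows: active = activation of at least 60% and not above a set upper limit (about 1 call in 100 departs from these limits); inconclusive = activation of 40% to 60%, or above that upper limit; inactive = activation under 40%.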 The list shows a part of the results.

The compounds below were run against Probable G-protein coupled receptor 32 (Homo sapiens) (UniProt O75388) (assay: qHTS for Agonists of Human Resolvin D1 Receptor DRV1). Details: CHO-K1 GPR32 beta-arrestin PathHunter luminescence, 90 min; at 76.9 µM; active compounds read high; zero percent set by DMSO-only wells.
Sequence of UniProt O75388 (O75388 whole entry, looked up): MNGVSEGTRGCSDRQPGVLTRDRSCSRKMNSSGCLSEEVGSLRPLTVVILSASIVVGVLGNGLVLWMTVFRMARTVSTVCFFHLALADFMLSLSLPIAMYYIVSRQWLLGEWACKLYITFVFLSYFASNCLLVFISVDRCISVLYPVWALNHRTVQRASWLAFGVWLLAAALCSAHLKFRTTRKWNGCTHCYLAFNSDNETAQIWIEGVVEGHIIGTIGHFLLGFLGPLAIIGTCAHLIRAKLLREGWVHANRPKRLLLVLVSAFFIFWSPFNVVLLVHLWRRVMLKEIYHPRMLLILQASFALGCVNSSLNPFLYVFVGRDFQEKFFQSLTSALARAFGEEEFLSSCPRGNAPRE
How it was run: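 CHO-K1 cells stably expressing ProLink-tagged GPR32 and Enzyme Activator-tagged beta-arrestin were seeded at 2,500 cells/well overnight, exposed to compounds for 90 min at 37 °C, then read by beta-Gal complementation chemiluminescence after 1 h detection reagent.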
Also: 0% is about no effect.

activation, active:
CCN(CC)C(=O)c1ccc2c(c1)N(Cc1ccc(C(F)(F)F)cc1)C(=O)c1ccccc1S2 87.2%, COc1ccc(Nc2ncnc3sc4c(c23)CCCC4)cc1 94.2%

activation, inactive:
CCOCCCn1c(=N)c(C(=O)NCc2cccnc2)cc2c(=O)n3ccccc3nc21 -46.3%, Cc1ccc(N2C(=O)CCSC23C(=O)N(Cc2ccccc2)c2ccccc23)cc1 (centres undefined) -7%, Cc1nn2c(=O)cc(COC(=O)c3cccc(NC(=O)COc4ccccc4C)c3)nc2s1 -16%, CCOc1ccccc1CNC(=O)C1CCCN(c2nnc(C)c3c(C)n(-c4ccccc4)nc23)C1 (centres undefined) 11.9%, COc1cccc(CNC(=O)CSC2=Nc3ccccc3N=C(c3ccc(F)cc3)C2)c1 -15.9%, COC(=O)c1ccc(C(=O)OC)c(NC(=O)CN(c2ccccc2)S(=O)(=O)N(C)C)c1 -9.63%, CCOC(=O)C1CCN(C(=O)Cn2nc(CC)n3c(cc4sccc43)c2=O)CC1 -3.82%, O=C(NCc1ccccc1Cl)c1ccc(CS(=O)(=O)c2ccc(Br)cc2)o1 21.4%, NS(=O)(=O)c1cc2c(cc1Cl)NC(CSCc1ccccc1)=NS2(=O)=O -38.9%, Cn1nnnc1SCCCNCc1ccccc1OCc1ccc(Cl)cc1 -1.35%, Cc1c(CNC2CCCCC2)c(C(=O)O)c(C)n1Cc1ccc(Cl)cc1 10.2%, Cc1ccc(Cn2c3ccccc3c3cnn(CC(=O)Nc4cc(Cl)ccc4C)c(=O)c32)cc1 -20%, Cc1cc(C)c(NC(=O)Cn2c(=O)n(CCC(=O)N3CCc4ccccc4C3)c(=O)c3ccccc32)c(C)c1 22.3%, CCN(CC)S(=O)(=O)c1ccc2c(c1)N(CC(=O)N1CCN(c3cccc(C)c3C)CC1)C(=O)CO2 -34.6%, CCOc1cc(CNS(=O)(=O)c2ccc3c(c2)C(C)(C)C(=O)N3)cc(OCC)c1OCC -14.9%, CCc1nn(CCCC(=O)NCc2ccc(OC(C)C)cc2)c(=O)c2cc3occc3n12 -22.1%, O=C(CSc1n[nH]c(-c2ccccc2Cl)n1)NCCc1ccccc1 -7.72%, COc1ccc(N2CCN(C(=O)c3cccn3-c3nnc(N4CCCC4)s3)CC2)cc1 -3.06%, COc1ccc(C)cc1NC(=O)Nc1nnc(N2CCCCC2)s1 5.88%, CCOC(=O)C1CCCN(c2nc3c(S(=O)(=O)c4ccc(CC)cc4)nnn3c3ccc(Cl)cc23)C1 (centres undefined) -4.23%, CC(NC(=O)Cn1ccc2cc(S(=O)(=O)N3CCCCCC3)ccc21)c1ccccc1 (centres undefined) 15.1%, Cc1ccc(NC(=O)c2sc3nc(-c4cccs4)ccc3c2N)cc1F 21.1%, CCN(CC)C(=O)c1c(NC(=O)c2cccc(C)c2)sc2c1CCC(C)C2 (centres undefined) -29%, CCN1CCC(N(Cc2ccc3c(c2)OCO3)C(=O)Nc2cc(F)ccc2F)CC1 -6.68%, CCCCc1nnc(SCc2cc(=O)c3cc(F)ccc3[nH]2)n1C -7.7%, COc1ccc(-c2cc(C(F)(F)F)nc(SCCC(=O)Nc3ccc(OC)c(OC)c3)n2)cc1 -4.23%, CC(C)(C)NC(=O)C1CCN(c2nc3ccccc3nc2C(F)(F)F)CC1 -9.46%, COc1ccc(C(=O)NCCn2cc(SCc3c(F)cccc3Cl)c3ccccc32)cc1 -2.47%, Cc1ccc(-n2ncc3c(NC4CCCCCC4)ncnc32)cc1 27.5%, COc1ccc(CNC(=O)CN2C(=O)CC(c3ccc(C)c(C)c3)=Nc3ccccc32)cc1 -0.749%, O=C(c1cnc(N2CCOCC2)c2ccccc12)N1CCN(c2ccccc2)CC1 -9.62%, O=c1[nH]c2cc(Br)ccc2n2cccc12 -1.67%, O=C(O)c1ccccc1Nc1cc(Cl)ccc1C(=O)O -27.6%, Cc1cc(C)c(-c2n[nH]c3c2C(c2ccccc2F)N(Cc2ccco2)C3=O)c(O)c1 (centres undefined) -12.2%, COc1cc(NC(=O)N2CCc3c(sc4c3CCCC4)C2c2ccccc2)cc(OC)c1OC (centres undefined) -9.64%, CCN(CC)CCSc1c(C(C)C)cnc2c1c(=O)n(C)c(=O)n2C -16.6%, O=C(CN1C(=O)COc2ccc(S(=O)(=O)NC3CCCC3)cc21)NCc1ccc(Cl)cc1 2.23%, CCOc1ccc(CNC(=O)CSc2nnc(C)c3c(C)n(-c4ccc(Cl)cc4)nc23)cc1 19.1%, COc1ccc(OC)c2sc(N3CCN(C(=O)c4ccco4)CC3)nc12 -9.17%, Cc1cccc(NC(=O)CSc2nc3ccc(NC(=O)COc4ccccc4C)cc3s2)c1 -4.91%, Cc1c(C(=O)OCCOc2ccccc2)[nH]c2c1C(=O)CC(c1ccc(C(C)(C)C)cc1)C2 (centres undefined) 8.66%, CCn1c2c(c(=O)n3ncc(C(=O)Nc4cc(Cl)ccc4OC)c13)CN(Cc1ccc(OC)cc1)CC2 -16.7%, O=C(NCc1ccc(Cl)cc1)C1CCN(c2nn3cc(-c4ccc(F)cc4)nc3s2)CC1 4.43%, CC1CN(C(=O)NCc2ccccc2)c2cc(Cl)ccc2O1 (centres undefined) -21%, CCCNC(=O)CCC(=O)N1Cc2cccc(OC)c2Oc2ncccc21 -3.79%, O=C(c1ccc2c(c1)OCCO2)N1CCCCC1 4.68%, COc1ccc(Cl)cc1NC(=O)c1cc(-c2ccc3c(c2)OCO3)on1 10.8%, COc1ccc(NC(=O)c2nc(S(C)(=O)=O)ncc2N(Cc2ccc(C)cc2)Cc2ccco2)cc1Cl -15.8%, COc1cccc(CNC(=O)c2cc(-c3ccc(Cl)s3)nc3ccccc23)c1 -1.11%, COc1ccc(C)cc1NC(=O)N1CCN(S(=O)(=O)c2ccc3c(ccn3C)c2)CC1 -0.304%, CCCCc1cc(=O)oc2cc(C)c3c(C(C)(C)C)coc3c12 -4.32%, Cc1ncc(CO)c2c1Oc1nc(-c3ccc(Cl)cc3)nc(SCC(=O)N3CCCCC3)c1C2 4.06%, Cc1cccc(CSc2nc3c(sc4ccccc43)c(=O)n2CCC(=O)NC(C)C)c1 -23.6%, CCN(C(=O)CCc1nc(-c2ccc(C)cc2)no1)c1cccc(C(F)(F)F)c1 -17.4%, CCCS(=O)(=O)N1CC(=O)N(c2cccc(F)c2)C(C)(C(=O)NC2CCCCCC2)C1 (centres undefined) 1.34%, COc1ccc(C(=O)Nc2ccc(S(=O)(=O)Nc3cc(C)nc(C)n3)cc2)cc1 -22.7%, O=C(CCS(=O)(=O)c1cc2c(cc1Cl)NC(=O)CO2)NCCc1ccccc1 -5.6%, CCOC(=O)c1c(C)[nH]c(CCC(=O)Nc2ccccc2C(F)(F)F)c1C -3.01%, CCc1ccc(NC(=O)CSc2nnc3[nH]c(=O)cc(-c4ccccc4)n23)cc1 -12.7%, COC(=O)c1ccc2c(=O)n3nc(Nc4ccc(F)cc4F)sc3nc2c1 -2.93%, COc1ccc(CN2CCc3c(c(=O)n4ncc(C(=O)N5CCN(c6ccccc6F)CC5)c4n3C)C2)cc1 -10.3%, COc1cc(CNc2ccc3[nH]c(=O)[nH]c3c2)ccc1OCc1ccc(F)cc1Cl 10.9%, COc1ccc(NC(=O)c2c(NC(=O)C(F)(F)F)sc3c2CCCCC3)cc1 28.6%, CCCCC1CCC(C(=O)N2CC(=O)Nc3ccc(C)cc3C2c2ccc(F)cc2)CC1 (centres undefined) -27%, COc1ccc(Cn2ccc3nc(C)c(C(=O)N4CCN(c5cccc(OC)c5)CC4)cc3c2=O)cc1 -14.3%, Cc1cccc(N2CCN(C(=O)c3nn(C)c4c3CS(=O)(=O)c3ccccc3-4)CC2)c1C 3.23%, Cc1cc(NS(=O)(=O)c2ccc(N)cc2)no1 8.54%, CS(=O)(=O)N(Cc1ccccc1)c1ccc(C(=O)Nc2cccc(Cl)c2)cc1 18.1%, COc1ccc(CNC(=O)c2ccc3c(O)c(S(=O)(=O)c4ccccc4)c(=O)[nH]c3c2)cc1 -2.43%, CC(=O)c1cccc(NC(=O)CN2C(=O)CCc3cc(S(=O)(=O)N4CCCCC4)ccc32)c1 -17.4%, O=C(Nc1cccc(C(F)(F)F)c1)Nc1nnc(N2CCCCCC2)s1 3.39%, COCCCNC(=O)CN1C(=O)c2cccnc2Sc2ccccc21 -5.56%, COc1ccccc1N1CCN(C(=O)c2cc(-c3ccc(C)c(F)c3)on2)CC1 -16%, COc1cccc2cc(C(=O)Nc3ccc(CC(=O)O)cc3)c(=O)oc12 -14.3%, Cc1ccc(NC(=O)CSc2nc(-c3ccco3)cc(C(F)(F)F)n2)c(C)c1 -17.9%, COc1ccc(-c2cc(C(=O)Nc3sc4c(c3C(N)=O)CCCC4)no2)cc1 1.03%, CCN(CC)CCNC(=O)C(=O)Nc1c2c(nn1-c1ccc(F)cc1)CSC2 -25.6%, CCOc1ccc(S(=O)(=O)N2Cc3ccccc3CC2C(=O)Nc2ccc(NC(C)=O)cc2)cc1 (centres undefined) 8.16%, CCCCN1CC(c2nc3ccccc3n2CCCCOc2cc(C)cc(C)c2)CC1=O (centres undefined) 6.68%, CC(C)(C)C(=O)C(Oc1ccc(Cl)cc1)n1ccnc1 (centres undefined) -67.1%, CCNC(=O)c1c(NC(=O)Cc2coc3ccc(CC)cc23)sc2c1CCCC2 -1.62%, Cc1oc2ncn(CC(C)C)c(=O)c2c1C(=O)N(CCN(C)C)Cc1ccccc1 -7.86%
